Results: the supplement of paper PMC12217912
Some of the results follow. Sequences were assembled here from the parent chain. Inactive controls read about 0.05.

B1: TEV protease; numbered along this chain (parent)
chain: MGESLFKGPRDYNPISSSICHLTNESDGHTTSLYGIGFGPFIITNKHLFRRNNGTLVVQSLHGVFKVKDTTTLQQHLVDGRDMIIIRMPKDFPPFPQKLKFREPQREERICLVTTNFQTKSMSSMVSDTSCTFPSGDGIFWKHWIQTKDGQCGSPLVSTRDGFIVGIHSASNFTNTNNYFTSVPKNFMELLTNQEAQQWVSGWRLNADSVLWGGHKVFMVKPEEPFQPVKEATQL

Variants of: B1
Assay: raw area under fraction-flipped curve 0-4 h after induction (AUC4h, not background-subtracted), DNA-recorder readout of cleavage of the substrate (dimensionless); higher = more cleavage of the substrate by the protease variant
Settings: temperature: 34 °C; time window: 0-4 h after rhamnose induction
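Also: Bxb1 expression induced with 0.2% (w/v) L-rhamnose at OD600 near 0.5, cultures sampled hourly, flipped fraction per protease–substrate barcode pair counted by paired-end Illumina sequencing.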

Row | Variant | area with substrate ENEYFQS | area with substrate ENRYFQS | area with substrate ENHYFQS | area with substrate ENKYFQS | area with substrate ENWYFQS | area with substrate ENYYFQS | area with substrate ENQYFQS | area with substrate ENVYFQS | area with substrate ENFYFQS | area with substrate ENGYFQS
1 | F101D | 0.0341 | 0.035 | – | – | – | – | – | – | – | –
2 | N116M | 0.0509 | 0.0608 | 0.0841 | 0.0535 | 0.0303 | – | – | – | – | –
3 | N172K | 0.0672 | – | – | – | – | 0.0584 | – | – | – | –
4 | F173Q | 0.0537 | – | – | 0.0742 | – | – | 0.0578 | 0.0609 | – | –
5 | N178T | 0.0605 | 0.0631 | 0.0604 | 0.053 | 0.0508 | – | 0.0562 | – | 0.0602 | 0.0613
6 | N178W | 0.0705 | – | – | – | – | 0.0551 | 0.0495 | – | – | –
7 | Y179N | 0.081 | – | – | 0.0535 | – | 0.0791 | – | – | – | –
8 | E231L | 0.0611 | – | – | – | 0.0107 | – | – | – | – | 0.043
9 | P9H | – | – | 0.0583 | – | – | – | – | – | 0.0523 | 0.0558
10 | Y34W | – | – | – | – | – | – | 0.0736 | – | 0.062 | –
11 | G35N | – | – | – | – | – | 0.0371 | – | – | 0.0292 | –
12 | T70M | – | 0.0579 | – | – | – | 0.0269 | 0.074 | 0.0805 | 0.0555 | 0.0584
13 | R87W | – | – | – | 0.0888 | 0.0527 | – | 0.0495 | 0.0703 | 0.0646 | 0.0582
14 | E103F | – | 0.0592 | 0.0802 | 0.0645 | – | 0.0542 | 0.0629 | – | 0.0615 | –
15 | I110P | – | 0.061 | 0.057 | – | – | – | 0.0687 | – | 0.0621 | –
16 | N178F | – | – | 0.0572 | – | – | – | – | 0.185 | 0.141 | –
17 | Y179W | – | – | 0.0599 | – | – | – | 0.0433 | – | 0.0575 | –

Row | Variant | area with substrate ENEYFQS | area with substrate ENRYFQS | area with substrate ENHYFQS | area with substrate ENKYFQS | area with substrate ENWYFQS | area with substrate ENYYFQS | area with substrate ENQYFQS | area with substrate ENVYFQS | area with substrate ENFYFQS | area with substrate ENGYFQS
18 | L205D | – | – | – | 0.0504 | 0.0651 | – | 0.0698 | 0.0611 | 0.0531 | 0.0614
19 | G213N | – | – | 0.046 | – | 0.0374 | – | 0.0506 | 0.0617 | 0.0642 | –
20 | V58T | – | 0.0547 | – | – | – | – | 0.0069 | – | – | 0.0656
21 | E195V | – | – | – | – | – | – | 0.055 | – | – | 0.0633
22 | N206A | – | – | – | – | – | – | – | – | – | 0.0828
23 | E223G | – | – | 0.0451 | – | – | – | – | 0.0865 | – | 0.0685
24 | K68M | – | – | 0.0706 | 0.0938 | – | – | – | 0.0765 | – | –
25 | Q227R | – | – | 0.0429 | 0.0722 | 0.0544 | 0.0691 | – | 0.115 | – | –
26 | P93F | – | 0.0557 | – | 0.0598 | – | – | 0.0596 | – | – | –
27 | F180Q | – | – | – | 0.0375 | – | – | 0.0572 | – | – | –
28 | L211S | – | – | – | 0.0542 | – | – | – | – | – | –
29 | D91L | – | – | – | – | – | – | – | 0.0494 | – | –
30 | N193D | – | 0.0737 | – | – | – | – | 0.0481 | 0.0781 | – | –
31 | G8E | – | – | – | – | – | – | 0.0273 | – | – | –
32 | G213Q | – | – | – | – | – | – | 0.0606 | – | – | –
33 | G138C | – | – | – | – | – | 0.0509 | – | – | – | –

Same assay, conditions: temperature: 34 °C; time window: 0-4 h after rhamnose induction

Row | Variant | area with substrate ENNYFQS | area with substrate ENPYFQS | area with substrate ENSYFQS | area with substrate ENTYFQS | area with substrate ENMYFQS | area with substrate ENIYFQS
34 | N178T | 0.0629 | 0.0814 | 0.0655 | – | – | –
35 | Y179N | – | 0.0565 | 0.0606 | – | – | –
36 | E231L | – | – | 0.0527 | 0.0585 | – | –
37 | P9H | 0.0946 | – | 0.0647 | – | 0.0962 | –
38 | Y34W | – | – | – | 0.0632 | 0.0725 | –
39 | G35N | – | – | 0.0481 | – | – | –
40 | T70M | – | – | 0.0659 | – | – | –
41 | R87W | 0.0592 | 0.058 | 0.0744 | – | 0.0835 | –
42 | E103F | 0.0654 | – | 0.0445 | – | – | –
43 | I110P | 0.0505 | – | – | – | – | 0.0653
44 | N178F | – | – | – | 0.0876 | 0.19 | –
45 | Y179W | 0.0534 | – | 0.0809 | – | 0.0514 | 0.0328
46 | L205D | 0.0759 | 0.0626 | 0.0686 | – | – | –
47 | G213N | – | 0.0633 | 0.0338 | – | – | –
48 | V58T | – | – | 0.0505 | 0.0774 | – | –
49 | E195V | – | – | – | 0.0697 | – | –
50 | N206A | – | – | 0.0765 | – | – | –
51 | E223G | – | – | – | – | 0.0959 | –
52 | Q227R | – | 0.0569 | 0.0637 | – | 0.0836 | 0.102
53 | P93F | 0.0655 | 0.0652 | 0.0541 | 0.0675 | 0.0619 | –
54 | L211S | – | – | 0.0676 | – | 0.0637 | –
55 | D91L | – | – | – | – | 0.0581 | –
56 | C131Y | 0.0518 | – | – | – | 0.0777 | –
57 | N193D | 0.0641 | – | 0.0684 | 0.0691 | – | –
58 | G213Q | – | – | 0.0746 | – | – | –
59 | Y34K | – | – | – | 0.068 | – | –
60 | G138C | – | – | – | 0.0321 | – | –
